Data: the supplement of paper PMC12217912
Some of the results follow. Sequences were assembled here from the parent chain. Inactive controls read about 0.05.

B1: TEV protease; numbered along this chain (parent)
chain: MGESLFKGPRDYNPISSSICHLTNESDGHTTSLYGIGFGPFIITNKHLFRRNNGTLVVQSLHGVFKVKDTTTLQQHLVDGRDMIIIRMPKDFPPFPQKLKFREPQREERICLVTTNFQTKSMSSMVSDTSCTFPSGDGIFWKHWIQTKDGQCGSPLVSTRDGFIVGIHSASNFTNTNNYFTSVPKNFMELLTNQEAQQWVSGWRLNADSVLWGGHKVFMVKPEEPFQPVKEATQL

Variants of: B1
Test: raw area under fraction-flipped curve 0-4 h after induction (AUC4h, not background-subtracted), DNA-recorder readout of cleavage of the substrate (dimensionless); higher = more cleavage of the substrate by the protease variant
Conditions: temperature: 34 °C; time window: 0-4 h after rhamnose induction
Method: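 In vivo DNA recorder in E. coli TOP10(DE3) ΔrhaA at 34 °C. Each TEVp single-site mutant (parent TEVp 0) is paired with a single-site variant of the 7-mer TEVs (canonical ENLYFQ|S). The substrate sits between flexible linkers in a Bxb1-sfGFP-TEVs-SsrA fusion, so cleavage stabilises Bxb1 and speeds flipping of a recombination array, read by NGS. The value is the raw area under the fraction-flipped curve over 0-4 h after rhamnose induction (AUC4h), with ≥20 reads per time point. It is not background-subtracted; inactive controls average about 0.047.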
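Also: Bxb1 expression induced with 0.2% (w/v) L-rhamnose at OD600 near 0.5, cultures sampled hourly, flipped fraction per protease–substrate barcode pair counted by paired-end Illumina sequencing.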

Variant	area with substrate DNLYFQS	area with substrate HNLYFQS	area with substrate LNLYFQS	area with substrate MNLYFQS	area with substrate PNLYFQS	area with substrate SNLYFQS	area with substrate TNLYFQS	area with substrate YNLYFQS	area with substrate INLYFQS	area with substrate KNLYFQS
S169L	0.0606	0.0523	0.0674	0.0599	0.0614	0.0675	0.0679	0.0652	–	–
S169V	0.0541	0.0615	0.0665	0.061	0.0558	0.0649	0.0686	0.0616	0.061	0.0556
G213P	0.0643	–	–	0.0369	–	–	–	–	–	–
G213E	0.0644	–	0.0651	0.0185	0.054	–	–	–	0.0709	0.0564
G213I	0.0413	0.0596	0.0608	0.0438	0.057	–	–	–	0.046	–
T181W	0.0713	0.0511	–	0.0874	0.0622	0.0649	0.0604	–	–	0.0644
T181N	0.0746	–	–	–	–	–	0.0699	0.0771	–	0.0617
T181D	0.0693	–	–	0.0499	–	0.0429	–	–	–	0.0669
T181Q	0.0572	–	–	–	0.0545	–	0.0654	0.0395	0.0667	–
E231D	0.0934	–	0.061	0.0612	0.06	–	–	–	–	–
E231S	0.0697	0.0676	0.0539	–	0.0531	0.0835	0.065	–	–	–
E231K	0.0834	–	0.0759	–	0.0671	–	0.0692	–	0.0783	–
E223P	0.0871	0.0537	–	–	–	–	0.083	0.0547	–	–
G166Y	0.0551	0.0533	–	–	–	–	0.0432	–	0.0439	–
G166H	0.0684	0.0589	0.0503	0.0519	0.036	–	–	0.0561	0.0467	0.0674
S201M	0.103	0.0585	0.0614	–	0.0652	0.0508	0.0731	0.0567	–	0.072
S201T	0.0999	0.0649	0.0616	0.0812	0.0649	–	0.0243	–	–	0.079
V220F	0.0818	–	0.0586	0.0717	0.0774	–	0.0559	0.0636	–	–
V220K	0.0758	0.063	0.0741	0.0222	0.101	–	0.112	0.056	0.069	0.0659
N206M	0.0754	0.0694	–	–	–	–	0.0596	–	–	–

Variant	area with substrate DNLYFQS	area with substrate HNLYFQS	area with substrate LNLYFQS	area with substrate MNLYFQS	area with substrate PNLYFQS	area with substrate SNLYFQS	area with substrate TNLYFQS	area with substrate YNLYFQS	area with substrate INLYFQS	area with substrate KNLYFQS
N206V	0.0644	0.0555	0.0532	–	–	0.0684	0.0537	–	0.071	–
N206Q	0.0617	0.0674	0.0405	–	0.0401	–	0.065	0.063	–	0.0627
N206W	0.0698	0.0655	0.0578	0.0615	0.0581	0.0446	0.0561	–	0.0588	–
S182D	0.0752	0.0572	0.0479	–	–	–	0.0591	–	–	–
V217M	0.0442	0.0564	–	0.0515	–	0.062	0.0633	–	–	0.0623
A196P	0.0486	0.0578	–	–	0.0715	0.0662	0.0381	0.0624	0.0349	–
A196C	0.09	–	–	0.0662	–	–	–	–	–	–
Q197H	0.0621	0.064	–	0.06	0.0644	0.0615	0.0636	–	0.0611	–
W212Y	0.0759	–	0.0647	–	0.0711	–	0.0619	–	–	0.0401
W212H	0.0823	0.0559	–	–	0.0519	–	–	0.0512	0.0604	–
F180Y	0.105	0.0635	0.0591	0.0611	0.0642	–	0.0682	–	–	–
N178P	0.0653	0.0713	0.0752	–	0.0562	–	–	–	–	–
W203F	0.0629	0.0573	–	0.0677	0.073	–	–	0.0696	–	0.0663
W203Q	0.0674	0.0559	–	0.0853	–	–	–	0.0479	–	–
L190K	0.0771	0.0738	0.0698	0.0633	0.0603	–	0.0562	0.0565	–	0.0752
L190I	0.0773	0.0552	–	–	–	–	0.0683	–	–	0.0778
L190V	0.0797	–	–	–	0.0604	0.0892	0.0628	0.0681	0.0618	0.0662
A170P	0.0451	–	–	–	–	–	–	–	–	0.071
A170D	0.0565	–	0.0403	–	–	0.0468	–	–	–	–
A170L	0.0622	0.0465	–	0.0577	0.0482	–	0.0576	–	–	–

Same assay, conditions: temperature: 34 °C; time window: 0-4 h after rhamnose induction

Variant	area with substrate NNLYFQS	area with substrate FNLYFQS	area with substrate GNLYFQS	area with substrate WNLYFQS	area with substrate VNLYFQS	area with substrate RNLYFQS	area with substrate QNLYFQS
S169V	0.0613	–	–	–	–	–	–
G213P	–	0.0885	0.0658	0.0485	–	–	–
G213I	0.0517	0.0549	0.0604	–	0.0594	–	–
T181W	–	–	–	0.0364	0.0737	0.079	–
T181N	–	–	–	–	–	–	0.0475
T181D	–	–	0.0586	–	–	0.0322	–
T181Q	–	0.0612	0.0557	–	–	0.0592	–
E231D	–	0.0653	–	0.0647	–	–	–
E231S	0.0796	–	0.0635	0.0543	–	–	–
E231K	0.0389	–	–	0.0873	0.0887	–	–
E223P	–	0.1	0.0577	0.0602	–	0.0528	0.0699
G166Y	0.0712	0.0593	–	0.0569	–	–	–
G166H	0.0387	–	–	0.0523	0.0474	0.0486	–
S201M	–	–	0.0519	–	–	0.0505	–
S201T	–	0.0691	–	0.0543	0.0107	–	–
V220F	0.0551	–	0.082	0.0598	0.0605	–	–
V220K	0.0823	0.0559	–	0.0656	–	–	–
N206M	0.066	0.0748	–	–	–	–	–
N206V	–	–	–	0.0528	0.0586	–	–

Variant	area with substrate NNLYFQS	area with substrate FNLYFQS	area with substrate GNLYFQS	area with substrate WNLYFQS	area with substrate VNLYFQS	area with substrate RNLYFQS	area with substrate QNLYFQS
N206Q	0.0641	–	0.0743	0.0606	–	–	–
N206W	0.0643	–	–	0.0516	–	0.069	–
S182D	–	–	0.0681	0.0594	–	–	–
V217M	0.0013	0.0372	0.0639	0.0336	–	–	–
A196P	0.0582	0.055	–	0.0664	–	–	–
A196C	–	0.0641	–	–	–	–	–
Q197H	0.0763	–	0.0955	0.0609	–	–	–
W212Y	0.068	0.0644	–	–	–	–	–
W212H	0.05	–	–	–	–	–	0.0541
F180Y	0.0727	0.054	0.0717	0.0757	0.063	–	–
N178P	–	–	0.0857	–	–	–	–
W203F	0.076	–	0.0458	0.0493	–	–	–
W203Q	–	0.0623	0.0446	0.051	0.0555	–	–
L190K	0.0669	–	0.0596	0.0611	0.0601	–	–
L190I	0.0583	–	–	0.0454	–	–	–
L190V	0.0663	0.0699	–	0.0529	0.0819	–	0.0724
A170P	–	–	–	0.0806	0.0426	–	–
A170L	–	–	0.0748	0.0507	–	–	–
